Measured values from ChEMBL document CHEMBL4888484, “Replenishing the malaria drug discovery pipeline: Screening and hit evaluation of the MMV Hit Generation Library 1 (HGL1) against asexual blood stage Plasmodium falciparum ,using a nano luciferase reporter read-out” (2022).
About 540 (0.36%) of roughly 150,000 compounds showed an effect of 50% or more. This is one part of the list.

The molecules below were run on Plasmodium falciparum (assay: Primary screen in NF54 nanoGlo assay, in single point, at 2uM, 72h; a lower Z score goes with more inhibition). Details: timepoint 72 hour.
Type: functional, Erythrocyte

Compound | % Inhibition [%] | Z score
CN1CC2(CCN(Cc3ccccc3C#N)CC2)C[C@@H](c2ccccc2)C1=O | -23 | 2.21
COc1ccc([C@@]2(C)NC(=O)N(CC(=O)Nc3cc(C)nn3-c3ccc(C)cc3)C2=O)cc1OC | -8 | 1.13
COCC1(NC(=O)Nc2ccc(OCc3cccnc3)cc2)CCC1 | -2 | 0.3
O=C(CCc1ccccc1)NC1CCN(c2ccccc2C(=O)N2CCN(C3CCCCCC3)CC2)CC1 | -16 | 2.12
CCc1ccc(NC(=O)CN(C)C2CCN(c3ccccn3)CC2)cc1 | -16 | 2.62
COc1cccc(Nc2ccc(NC(=O)N3CCO[C@](C)(C(F)F)C3)nc2)c1 | -3 | 0.38
C[C@@H](C(=O)NCCc1csc(N)n1)N1CCN(C)CC1 | -11 | 2.06
CC1=NN(C(=O)c2cccnc2)[C@@](O)(c2cccnc2)C1 | 8 | -1.46
O=C(c1ccccn1)N1C[C@H]2CC[C@@H](C1)N(C(=O)Nc1cccc(Cl)c1)C2 | -1 | 0.06
CN(Cc1ccc(C#N)cc1F)C1CCCCC1S(C)(=O)=O (stereo not given) | -7 | 0.98
Cc1cccc(-n2c(=O)c3ccccc3n([C@@H](C)C(=O)NCc3cccc(C(F)(F)F)c3)c2=O)c1C | 6 | -0.75
O=C(c1nc2ccc(Cl)cn2c1F)N1CCC[C@@]2(CCOC2)C1 | -10 | 1.95
Cc1ncc(C(=O)N2CCN(Cc3ccc(C)c(C)c3)C(=O)C2)s1 | -13 | 1.77
CCCn1ccnc1-c1cn([C@H]2CCN(Cc3ccccc3)C2)nn1 | -4 | 0.6
C=CC[C@H](C)NS(=O)(=O)c1ccc(C(=O)O)c(C)c1 | 9 | -1.58
CCNS(=O)(=O)c1cc(S(=O)(=O)NCC)c(OC)cc1OC | 1 | -0.19
O=C(NCc1ccccc1CN1CCCCCC1)c1c[nH]nn1 | 4 | -0.58
CC[C@H](NC(=O)C(C)(C)OC)c1ncccc1C | -26 | 2.74
O=C1OC(C(=O)N2CCCCC2C(=O)Nc2ccc(Cl)cc2Cl)Cc2ccccc21 (stereo not given) | -4 | 0.46
COc1ccc(N2C=NS(=O)(=O)c3cccnc32)cc1F | -6 | 0.91
Cc1cccc2c(=O)n(CCC(=O)Nc3ccccc3Oc3ccccc3Cl)cnc12 | -8 | 1.23
Cc1nc(C(F)(F)F)c(Cn2cnc3snc(C)c3c2=O)s1 | -15 | 1.67

Compound | % Inhibition [%] | Z score
CN1CC[C@H](N2CC3(CCC2=O)CCN(c2ncnc4[nH]ccc24)CC3)C1 | -10 | 1.18
O=C(CNC(=O)c1sccc1OC(F)F)Nc1cn[nH]c1 | 6 | -0.99
CC(C)(C)n1nnnc1[C@@H]1CC2(CCOCC2)C(=O)N1Cc1ccc(F)cc1Cl | -8 | 0.88
CCN1CC2(CCN(C(=O)c3cccc(-c4ncc[nH]4)c3)CC2)CC1=O | -6 | 0.93
O=C(c1cnc2ccc(F)cc2c1N1CCN(c2ccccc2)CC1)N1CCCCC1 | -9 | 1.05
O=C(c1nnc2n1CCCC2)N1CCC(c2nc3ccccc3o2)CC1 | -11 | 1.81
CC1CC(=O)CCC1C(=O)NCCc1ccccc1Br (stereo not given) | -24 | 2.41
CC(C)c1ocnc1C(=O)Nc1ccc(NC[C@H]2CCCO2)c(F)c1 | -10 | 0.95
COc1ccc(-c2cc(C(=O)N3c4ccc(F)cc4CC[C@@H]3C)c3ccccc3n2)cc1OC | -14 | 1.61
COc1ccc(CNC(=O)c2ccc(N3C(=O)CCS3(=O)=O)cc2Cl)cc1OC | 0 | 0.06
O=C(C1CCC1c1ccc(F)cc1)N1CCC(c2nnc[nH]2)C1 (stereo not given) | -3 | 0.45
Cc1nnc(CN2CCc3[nH]nc(C)c3C2)s1 | -15 | 1.97
C[C@@H](CCc1ccccc1)NC(=O)c1cn(CCN)nn1 | -3 | 0.57
CCOc1cc2c(c3[nH]c(C(=O)NC)cc13)O[C@@H](C)C2 | -15 | 2.12
COCCN1CCN(C2CCN(c3ccc(-c4cscn4)cc3)CC2)CC1 | 6 | -0.77
CN(Cc1csc(-c2cccs2)n1)C(=O)COC[C@H]1CCCO1 | -9 | 1.71
CCc1nc(NS(=O)(=O)Cc2ccccc2C)no1 | 31 | -3.45
Cc1csc([C@H](C)N(C)C(=O)c2ncoc2C)n1 | -22 | 2.33
C[C@@H](CCNc1ncnc2scnc12)NC(=O)OC(C)(C)C | -13 | 2.03
CC1CCN(C(=O)OC(C)(C)C)C(C)C1NS(C)(=O)=O (stereo not given) | -3 | 0.58
CCN1CC2(CCN(C(=O)CNC(N)=O)CC2)C[C@@H](c2ccccc2)C1=O | -18 | 1.64
C[C@@H](c1ccc2c(c1)OCCO2)N(C)C(=O)c1cccn1C1CC1 | 3 | -0.37

Compound | % Inhibition [%] | Z score
O=C(COc1ccccc1F)N1CCC(=C2CC2)CC1 | -4 | 0.6
CCC(CC)(CNC(=O)C1CC2CC(N)C2C1)C(F)(F)F (stereo not given) | 4 | -0.5
COc1cn(CC(=O)N2CCOCC2)c(CN2CCc3ccccc3C2)cc1=O | 1 | -0.17
O=C(NCc1ccccc1)C1CCC(Cn2cnnn2)CC1 (stereo not given) | 4 | -0.46
O=C(c1nccnc1-c1nc2ccccc2s1)N1CCc2sccc2C1 | 32 | -4.1
Cc1ocnc1CNC(=O)NC[C@]1(O)CCCC1(C)C | 5 | -0.99
Clc1ccc(-c2noc(-c3cccnc3N3CCOCC3)n2)cc1 | -7 | 1.01
CCc1cc(CN(C)CCC(=O)Nc2cccnc2)on1 | -2 | 0.3
CCOC[C@@H](O)CN1CCN(c2nc(-c3ccccc3)nc(CC)c2Cc2ccccc2F)CC1 | -15 | 1.98
O[C@H]1Cc2ccccc2[C@H]1NC1CCC(O)(C(F)(F)F)CC1 (stereo not given in full) | -4 | 0.32
O=S(=O)(c1cccs1)N(CCO)c1ccc(F)cc1F | -6 | 1.12
CCn1ccc(C(=O)N(C)Cc2cnn(C(C)C)c2)cc1=O | -16 | 2.28
COc1ccccc1CN1C[C@@H](c2nc(CC3CCN(C)CC3)no2)CCC1=O | 14 | -1.78
Cc1ncc(CNC(=O)c2ccc(NC(C)C)nc2)c(N)n1 | -6 | 0.54
CC(C)C(C)NC(=O)NCC(O)c1ccccc1F (stereo not given) | 0 | 0.02
COCC(O)CNC1C[C@H](C)CCC1=C(C)C (stereo not given in full) | 4 | -0.59
Cc1ccc(-c2nc(C3(Cn4ccnc4)CC3)n(CC(=O)O)n2)o1 | -6 | 1.16
CCc1cc(C(=O)N2CCN(c3ccc(OC)cc3)CC2)nc2ccnn12 | -2 | 0.35
CNC(=O)Nc1ccc(C(F)(F)F)nn1 | -15 | 1.47
CCn1c(COC(=O)CNC(=O)c2ccccc2OC)nc2cc(S(=O)(=O)N(C)C)ccc21 | -11 | 1.06
Cc1cc(C(=O)Nc2nc(-c3ccc4c(c3)COC4)cs2)on1 | -4 | 0.66
CCc1nsc(N2CCOC[C@H]2c2ccnn2C)n1 | 0 | 0.04

Compound | % Inhibition [%] | Z score
Cn1c(CN2CC[C@H](NC(=O)c3ccncc3)[C@@H](O)C2)cc2cc(F)ccc21 | -6 | 1.02
CN(Cc1ccccc1)C(=O)CCC1CCN(C(=O)[C@@H]2CC=CCC2)CC1 | -2 | 0.27
O=C(c1nc2ccccc2s1)N1CCC[C@H](Oc2ccncc2)C1 | 1 | -0.08
COc1cccc(C(=O)N/C(=N/c2ccc(F)cc2)N2CCN(C3CCCCC3)CC2)c1 | -6 | 1.2
c1cc2occc2c(-c2ccnc3[nH]ccc23)n1 | 0 | -0.04
CC1CCCCN1CCC1CCN(C(=O)C2CCCC23OCCO3)CC1 (stereo not given) | -3 | 0.44
C[C@H](NC(=O)NCCc1c[nH]c2ccc(F)cc12)C1=CCN(C)CC1 | 1 | -0.11
O=C(NCC1CC1)c1ccc2[nH]c3c(c2c1)CCCCC3 | -12 | 1.65
CC1CC(C)CN(Cc2csc(NC(=O)CCc3cnn(C)c3)n2)C1 (stereo not given) | -34 | 4.04
N#Cc1ccc(C(=O)NC(Cc2ccncc2)[C@H]2C[C@H](O)C2)cn1 (stereo not given in full) | 10 | -1.94
COCC1(N(C)Cc2ccccc2Cn2cccn2)CC1 | -8 | 1.39
CCc1c([C@H](C)S(=O)(=O)c2ccccc2)[nH]c(=O)n1-c1ccc(OC(F)(F)F)cc1 | 1 | -0.15
CN(C)[C@@H](C(=O)N1Cc2cncnc2C1)c1ccccc1 | -15 | 2.69
CCCCN(CCCC)C(=O)c1cccc(NC(=O)CCC)c1 | -15 | 2.86
O=C(N[C@H]1CCO[C@@H]1c1cc[nH]n1)c1cccc(-n2cccn2)n1 | 2 | -0.43
Cc1nccc(N2CC(N3CCNC3=O)C2)n1 | -9 | 1
C[C@@H]1C[C@H](O)CN(C(=O)CC(C)(F)F)C1 | -6 | 0.79
N#Cc1ccccc1N1CCCOC1=O | 5 | -0.61
Cc1cc(Cl)ccc1OCCNS(=O)(=O)c1ccc2ccccc2c1 | -15 | 1.98
